# Source: the supplement of paper PMC8728848
# The other results are listed elsewhere or left out.
# B1: Gal 8 (Homo sapiens), O00214_1 (protein)
# chain: MMLSLNNLQNIIYNPVIPFVGTIPDQLDPGTLIVIRGHVPSDADRFQVDLQNGSSMKPRADVAFHFNPRFKRAGCIVCNTLINEKWGREEITYDTPFKREKSFEIVIMVLKDKFQVAVNGKHTLLYGHRIGPEKIDTLGIYGKVNIHSIGFSFSSDLQSTQASSLELTEISRENVPKSGTPQLRLPFAARLNTPMGPGRTVVVKGEVNANAKSFNVDLLAGKSKDIALHLNPRLNIKAFVRNSFLQESWGEEERNITSFPFSPGMYFEMIIYCDVREFKVAVNGVHSLEYKHRFKELSSIDTLEINGDIHLLEVRSW
# Legend:
# Test in all cases: glycan array binding signal (z-score within array); higher = stronger binding
# Details in all cases: glycan notation: IUPAC condensed, linker removed
# Fuc(a1-2)Gal(b1-4)Glc = biological target: Fuc(a1-2)Gal(b1-4)Glc
# Outline: (§1)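 Glycan array data came from 3228 arrays in the Consortium for Functional Glycomics database, and only arrays with an available protein sequence were kept. Glycan names were put into IUPAC-condensed notation, and columns mapping to the same glycan were averaged. The binding signal is a within-array Z-score, averaged across arrays of one protein sequence run at different concentrations or buffers and across linkers. A negative Z-score can be read as non-binding.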
# Fuc(a1-2)Gal(b1-4)Glc6S = biological target: Fuc(a1-2)Gal(b1-4)Glc6S
# Outline: as §1
# Fuc(a1-2)Gal(b1-4)GlcNAc = biological target: Fuc(a1-2)Gal(b1-4)GlcNAc
# Outline: as §1
# [1] = biological target: Fuc(a1-2)Gal(b1-4)GlcNAc(b1-2)Man
# Outline: as §1
# [2] = biological target: Fuc(a1-2)Gal(b1-4)GlcNAc(b1-2)Man(a1-3)[Fuc(a1-2)Gal(b1-4)GlcNAc(b1-2)Man(a1-6)]Man(b1-4)GlcNAc(b1-4)GlcNAc
# Outline: as §1
# [3] = biological target: Fuc(a1-2)Gal(b1-4)GlcNAc(b1-2)Man(a1-3)[Fuc(a1-2)Gal(b1-4)GlcNAc(b1-2)Man(a1-6)]Man(b1-4)GlcNAc(b1-4)[Fuc(a1-6)]GlcNAc
# Outline: as §1
# [4] = biological target: Fuc(a1-2)Gal(b1-4)GlcNAc(b1-2)[Fuc(a1-2)Gal(b1-4)GlcNAc(b1-4)]Man(a1-3)[Fuc(a1-2)Gal(b1-4)GlcNAc(b1-2)Man(a1-6)]Man(b1-4)GlcNAc(b1-4)GlcNAc
# Outline: as §1
# [5] = biological target: Fuc(a1-2)Gal(b1-4)GlcNAc(b1-3)Gal(b1-4)GlcNAc
# Outline: as §1
# [6] = biological target: Fuc(a1-2)Gal(b1-4)GlcNAc(b1-3)Gal(b1-4)GlcNAc(b1-3)Gal(b1-4)GlcNAc
# Outline: as §1
# [7] = biological target: Fuc(a1-2)Gal(b1-4)GlcNAc(b1-3)GalNAc
# Outline: as §1
# [8] = biological target: Fuc(a1-2)Gal(b1-4)GlcNAc(b1-3)[Fuc(a1-2)Gal(b1-4)GlcNAc(b1-6)]GalNAc
# Outline: as §1
# [9] = biological target: Fuc(a1-2)Gal(b1-4)GlcNAc(b1-6)GalNAc
# Outline: as §1
# [10] = biological target: Fuc(a1-2)Gal(b1-4)GlcNAc6S
# Outline: as §1
# [11] = biological target: Fuc(a1-2)Gal(b1-4)[Fuc(a1-3)]GlcNAc
# Outline: as §1
# [12] = biological target: Fuc(a1-2)Gal(b1-4)[Fuc(a1-3)]GlcNAc(b1-2)Man(a1-3)[Fuc(a1-2)Gal(b1-4)[Fuc(a1-3)]GlcNAc(b1-2)Man(a1-6)]Man(b1-4)GlcNAc(b1-4)GlcNAc
# Outline: as §1
# [13] = biological target: Fuc(a1-2)Gal(b1-4)[Fuc(a1-3)]GlcNAc(b1-2)Man(a1-6)[Fuc(a1-2)Gal(b1-4)[Fuc(a1-3)]GlcNAc(b1-2)Man(a1-3)]Man(b1-4)GlcNAc(b1-4)[Fuc(a1-6)]GlcNAc
# Outline: as §1
# [14] = biological target: Fuc(a1-2)Gal(b1-4)[Fuc(a1-3)]GlcNAc(b1-2)[Fuc(a1-2)Gal(b1-4)[Fuc(a1-3)]GlcNAc(b1-4)]Man(a1-3)[Fuc(a1-2)Gal(b1-4)[Fuc(a1-3)]GlcNAc(b1-2)Man(a1-6)]Man(b1-4)GlcNAc(b1-4)GlcNAc
# Outline: as §1
# [15] = biological target: Fuc(a1-2)Gal(b1-4)[Fuc(a1-3)]GlcNAc(b1-3)Gal(b1-4)[Fuc(a1-3)]GlcNAc
# Outline: as §1
# [16] = biological target: Fuc(a1-2)Gal(b1-4)[Fuc(a1-3)]GlcNAc(b1-3)Gal(b1-4)[Fuc(a1-3)]GlcNAc(b1-3)Gal(b1-4)[Fuc(a1-3)]GlcNAc
# Outline: as §1
# [17] = biological target: Fuc(a1-2)Gal(b1-4)[Fuc(a1-3)]GlcNAc(b1-3)GalNAc
# Outline: as §1
# [18] = biological target: Fuc(a1-2)Gal(b1-4)[Fuc(a1-3)]GlcNAc(b1-3)[Neu5Ac(a2-6)Gal(b1-4)GlcNAc(b1-6)]Gal(b1-4)Glc
# Outline: as §1
# [19] = biological target: Fuc(a1-2)Gal6S(b1-3)GlcNAc
# Outline: as §1
# [20] = biological target: Fuc(a1-2)Gal6S(b1-3)GlcNAc6S
# Outline: as §1
binder,measurement,setting,value
B1,glycan array binding signal (z-score),Fuc(a1-2)Gal(b1-4)Glc,-0.139
same,glycan array binding signal (z-score),Fuc(a1-2)Gal(b1-4)Glc6S,-0.083
same,glycan array binding signal (z-score),Fuc(a1-2)Gal(b1-4)GlcNAc,-0.207
same,glycan array binding signal (z-score),[1],-0.266
same,glycan array binding signal (z-score),[2],0.822
same,glycan array binding signal (z-score),[3],-0.152
same,glycan array binding signal (z-score),[4],-1.24
same,glycan array binding signal (z-score),[5],0.433
same,glycan array binding signal (z-score),[6],0.644
same,glycan array binding signal (z-score),[7],-0.216
same,glycan array binding signal (z-score),[8],-0.182
same,glycan array binding signal (z-score),[9],-0.18
same,glycan array binding signal (z-score),[10],-0.183
same,glycan array binding signal (z-score),[11],-0.196
same,glycan array binding signal (z-score),[12],-0.08
same,glycan array binding signal (z-score),[13],-0.187
same,glycan array binding signal (z-score),[14],-0.069
same,glycan array binding signal (z-score),[15],-0.208
same,glycan array binding signal (z-score),[16],-0.194
same,glycan array binding signal (z-score),[17],0.081
same,glycan array binding signal (z-score),[18],-0.193
same,glycan array binding signal (z-score),[19],-0.249
same,glycan array binding signal (z-score),[20],-0.125
